# Results: PubChem BioAssay AID1508642 (National Center for Advancing Translational Sciences (NCATS), 2021)
# Out of some 43,000 compounds screened, about 200 (0.47%) were called active. Inconclusive results (about 12%) are left out. The call rests on the fitted dose curve; in most records, active means well fitted cell-killing curve with a large enough effect; inconclusive means small, poorly fitted or top-dose-only effect, or effect the other way; inactive means flat fitted curve, though single readings scatter. The list shows a part of the results.
# Assay: Cell viability qHTS assay in S16 Pmp22-F2sN cells; further: nearly all actives have a fitted effect of over 65% in size
# Conditions: S16 Pmp22-F2sN Schwann cells viability, CellTiter-Glo, 24 h; series mostly up to 57.5 µM; activity change, negative = cytotoxicity: at the top concentration
# Method in brief: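 Used to flag compounds lowering reporter output through toxicity, this quantitative HTS measures ATP-based CellTiter-Glo luminescence in S16 Pmp22-F2sN Schwann cells after 24 h compound exposure at 37C.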
# On the % scale 0 is the no-effect control and ±100 the full control effect.
row,Compound,"activity change, negative = cytotoxicity"
1,COc1ccc(NS(=O)(=O)c2ccc3c(c2)CC(C)N3C(C)=O)c(OC)c1 (configuration not stated),inactive: -26.4%
2,Cn1c(=O)c2c(n3ncnc13)NC(=O)CC2c1cccc(F)c1 (configuration not stated),inactive: -4.33%
3,CCOC(=O)C1=C(CN2CCN(c3cccc(OC)c3)CC2)NC(=O)NC1c1ccc(OC)cc1 (configuration not stated),inactive: -4.45%
4,COc1ccc(NC(=O)c2oc3c(c2C)-c2nn(Cc4ccccc4Cl)cc2CC3)cc1OC,inactive: -3.72%
5,Cc1ccc(-n2c(=O)c3c(cnn3C)n(CC(=O)Nc3c(C)cccc3C)c2=O)cc1,inactive: 10.2%
6,C=Cc1ccc(CSc2nnc(C)n3c2cc2occc23)cc1,inactive: -12.9%
7,COc1cccc(-c2nc(CS(=O)(=O)CC(=O)NCCc3ccc(OC)c(OC)c3)c(C)o2)c1,inactive: 1.44%
8,O=C(Cn1ccn(-c2cccc(Cl)c2)c(=O)c1=O)c1ccc(F)cc1,inactive: 7.06%
9,CCOc1ccc(CNC(=O)c2[nH]c3ccccc3c2Sc2ccc(C)cc2)cc1,inactive: 10.4%
10,Cc1ccc(NC(=O)CCS(=O)(=O)c2ccc(Br)cc2)c(C)c1,inactive: 0.22%
11,CC(C)c1ccccc1NC(=O)CN(c1ccccc1)S(=O)(=O)N(C)C,inactive: -4.68%
12,Cc1ccc2c(c1)CC(C)N2S(=O)(=O)c1nnc(NC(=O)c2ccccc2F)s1 (configuration not stated),inactive: 1.42%
13,CCOc1ccc(-c2nn(-c3ccccc3)cc2C2NC(=O)NC(C)=C2C(=O)OC(C)C)cc1C (configuration not stated),inactive: -5.03%
14,Cc1ccc(-n2nc(CO)c(C(=O)NCCCCc3ccccc3)n2)cc1,inactive: 2.24%
15,Cc1cc(C)cc(NC(=O)CCS(=O)(=O)c2ccc3nc(C)sc3c2)c1,inactive: 0.2%
16,O=C1C(c2ccc(F)cc2)N(Cc2ccccc2Cl)C(=O)CN1C1CCCCC1 (configuration not stated),inactive: -13.5%
17,CCOC(=O)c1cc(-c2ccccc2)n(CCC(=O)Nc2ccc(C)cc2Cl)c1C,inactive: 2.25%
18,COc1ccc(OC)c(S(=O)(=O)N2Cc3ccccc3CC2C(=O)Nc2ccc(Cl)cc2)c1 (configuration not stated),inactive: 5.87%
19,Cc1cc(Cl)ccc1Nc1ncnc2onc(C)c12,inactive: -1.16%
20,Cc1ccc(Cl)cc1N1CCN(C(=O)c2cc(S(=O)(=O)N3CCCCCC3)cn2C)CC1,inactive: -1.53%
21,Fc1ccccc1OCc1nc(-c2ccc(-n3cccc3)cc2)no1,inactive: 13.2%
22,CN(Cc1ccc(F)cc1)S(=O)(=O)c1nnc(NC(=O)c2ccc(F)cc2)s1,inactive: -20.7%
23,O=C(Nc1ccccc1Cl)C1CCN(c2nc3ccccc3[nH]2)CC1,inactive: 8.7%
24,COc1cccc(NC(=O)CSCn2nnc3c(=O)[nH]c(Cc4ccc(F)cc4)nc32)c1,inactive: -21.6%

row,Compound,"activity change, negative = cytotoxicity"
1,O=C(CN(CCc1ccccc1)S(=O)(=O)c1ccccc1)NCc1ccc(Cl)cc1,inactive: -24.3%
2,COc1ccc(NC(=O)C2CCCN(S(=O)(=O)c3ccc4c(c3)CCCN4C(C)=O)C2)cc1 (configuration not stated),inactive: -27%
3,COC(=O)c1ccc2c(c1)N(CC(=O)Nc1cccc(C(F)(F)F)c1)C(=O)c1ccccc1S2,inactive: 18.1%
4,O=C(CSc1nc2c([nH]c3ccccc32)c(=O)n1-c1ccccc1F)Nc1ccccc1C(F)(F)F,inactive: -12.5%
5,Cc1ccc(S(=O)(=O)c2nc(-c3cccc(C)c3)oc2N2CCCCC2)cc1,inactive: 0.871%
6,O=S(=O)(Nc1cccc(-c2ccc(N3CCCC3)nn2)c1)c1ccc(F)cc1F,inactive: 24.2%
7,Cc1ccccc1-n1c(=O)c2c3c(sc2n2cnnc12)CCCC3,inactive: 8.21%
8,COc1ccc(CNC(=O)C2CCN(c3nnc(-n4cccc4CNc4ccc(C)cc4)s3)CC2)c(OC)c1,inactive: -18.1%
9,COc1ccc(Cn2ccnc2SCC(=O)Nc2cc(C(F)(F)F)ccc2Cl)cc1,inactive: 2.73%
10,COc1ccc(-c2cn3nc(N4CCCC(C(=O)NCc5ccccc5C)C4)sc3n2)cc1 (configuration not stated),inactive: -21.5%
11,CCOC(=O)c1ccccc1NC(=O)c1sc2ccccc2c1Cl,inactive: 1.16%
12,CCN(CC)C(=O)Cn1c(=O)cc(C)c2c(C)nn(C)c21,inactive: 14.8%
13,COc1ccc(NC(=O)CSc2c3c(nc4ccccc24)CCC3)c(OC)c1,inactive: 2.86%
14,COc1ccc(N2CCN(C(=O)CN(C)S(=O)(=O)c3cccs3)CC2)cc1,inactive: 16.5%
15,CCn1c(=O)n(-c2ccc(F)c(Cl)c2)c(=O)c2c3c(sc21)CN(C(C)=O)CC3,inactive: 2.82%
16,CCOC(=O)c1nc(N2CCN(c3ccc(F)cc3)CC2)c2c(C)noc2n1,inactive: 1.64%
17,COc1ccc(-c2csc3nc(-c4ccc(F)cc4)oc(=O)c23)cc1,inactive: 8.7%
18,COc1ccc(NC(=O)CCCc2nnc3n(CCC(C)C)c(=O)c4sccc4n23)c(OC)c1,inactive: 24.9%
19,COCCNC(=O)c1ccc(-n2c(-c3ccccc3)cc3c2CCCCC3)cc1,inactive: 1.19%
20,COc1cccc(N2C(=O)CSC23C(=O)N(Cc2ccccc2)c2ccccc23)c1 (configuration not stated),inactive: 10.1%
21,Cc1ccc(C)c(CSc2cn(CC(=O)N3CCCCCC3)c3ccccc23)c1,inactive: 18.9%
22,Cc1ccc(S(=O)(=O)c2nc(-c3ccccc3Cl)oc2N2CCCCCC2)cc1,inactive: -24.6%
23,CCc1ccc(NC(=O)C(=O)NCC(c2ccc3c(c2)OCO3)N2CCOCC2)cc1 (configuration not stated),inactive: -6.79%
